About 2,200 (0.71%) of roughly 310,000 compounds showed an effect of 50% or more. The effect is printed as a negative number. The list shows a part of the results.

This assay deals with human ether-à-go-go-related gene (hERG) potassium channel (human, UniProt Q12809). The assay is described as follows: primary screen, population patch clamp on CHO cells stably expressing hERG.
Chain of human ether-à-go-go-related gene (hERG) potassium channel (Q12809 whole entry, looked up): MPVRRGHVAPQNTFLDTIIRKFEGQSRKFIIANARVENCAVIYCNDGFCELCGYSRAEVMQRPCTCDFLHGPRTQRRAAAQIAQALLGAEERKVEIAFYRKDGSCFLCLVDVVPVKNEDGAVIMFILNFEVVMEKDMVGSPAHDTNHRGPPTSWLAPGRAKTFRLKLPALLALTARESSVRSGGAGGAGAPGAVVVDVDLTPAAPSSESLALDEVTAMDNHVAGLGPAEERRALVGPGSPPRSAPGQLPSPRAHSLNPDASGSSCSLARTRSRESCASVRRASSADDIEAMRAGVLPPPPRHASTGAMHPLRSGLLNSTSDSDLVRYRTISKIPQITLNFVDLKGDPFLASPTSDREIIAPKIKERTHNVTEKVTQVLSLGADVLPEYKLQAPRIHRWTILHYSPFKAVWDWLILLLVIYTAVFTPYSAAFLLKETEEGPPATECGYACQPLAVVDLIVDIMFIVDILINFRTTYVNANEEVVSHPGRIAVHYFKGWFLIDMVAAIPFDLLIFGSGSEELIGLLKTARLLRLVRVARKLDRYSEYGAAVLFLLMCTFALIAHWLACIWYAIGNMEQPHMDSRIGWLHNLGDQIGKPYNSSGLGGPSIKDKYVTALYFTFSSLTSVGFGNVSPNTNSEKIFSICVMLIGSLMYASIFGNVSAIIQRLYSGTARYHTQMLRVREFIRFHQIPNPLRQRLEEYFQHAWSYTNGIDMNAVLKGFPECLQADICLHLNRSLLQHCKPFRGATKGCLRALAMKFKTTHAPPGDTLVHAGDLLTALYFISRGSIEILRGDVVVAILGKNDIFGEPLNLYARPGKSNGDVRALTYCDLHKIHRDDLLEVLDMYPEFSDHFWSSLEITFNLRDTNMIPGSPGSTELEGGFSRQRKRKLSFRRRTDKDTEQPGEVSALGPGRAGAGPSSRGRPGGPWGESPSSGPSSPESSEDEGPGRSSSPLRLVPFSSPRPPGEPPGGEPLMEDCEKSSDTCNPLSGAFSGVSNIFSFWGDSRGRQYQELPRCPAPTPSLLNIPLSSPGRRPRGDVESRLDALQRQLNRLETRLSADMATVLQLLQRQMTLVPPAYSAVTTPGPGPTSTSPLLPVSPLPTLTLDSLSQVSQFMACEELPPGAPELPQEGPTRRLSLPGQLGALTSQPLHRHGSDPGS
Consider `Cc1ccc(C)c(N(CC(=O)NCCc2ccccc2)C(=O)CCC(=O)Nc2ccccn2)c1`, for which the “hERG current change (%, negative = inhibition) at 1uM” value is reported as 12.6%. Regarding `N#CCc1nn2c(-c3ccccc3)ccnc2c1C#N`, the “hERG current change (%, negative = inhibition) at 1uM” value came out at 9.54%. As to `N#CC1(P(=O)(c2ccccc2)c2ccccc2)CCCC1`, the “hERG current change (%, negative = inhibition) at 1uM” value is on record as 9.29%. For `Cc1cc(C)c(C)c(S(=O)(=O)NC(C(=O)NCCc2ccco2)C(C)C)c1C` (stereo not shown), the “hERG current change (%, negative = inhibition) at 1uM” value was determined as 11.7%. In the case of `COc1ccc(Cl)cc1N(CC(=O)N(C)C)S(=O)(=O)c1ccc(C)c([N+](=O)[O-])c1`, the “hERG current change (%, negative = inhibition) at 1uM” value came to 6.51%.

As to `COc1cccc(CN2CC(C(=O)NCCn3cccn3)CCC2=O)c1` (stereo not shown), the “hERG current change (%, negative = inhibition) at 1uM” value worked out at 16.3%. Turning to `Cc1[nH]c2ccccc2c1CCC(N)=O`, the “hERG current change (%, negative = inhibition) at 1uM” value was 0.826%. `N#CCSc1nnc(-c2ccc(S(=O)(=O)N3CCOCC3)cc2)n1CC1CCCO1` (stereo not shown): the “hERG current change (%, negative = inhibition) at 1uM” value came to 7.22%.

Turning to `COc1ccc(-n2cnnc2)cc1`, the “hERG current change (%, negative = inhibition) at 1uM” value stood at 9.29%. Regarding `CCN(c1ccccc1)S(=O)(=O)c1cc(C(=O)Nc2cccc(Cl)c2)ccc1F`, the “hERG current change (%, negative = inhibition) at 1uM” value is given as 20.2%. As to `CCOC(=O)N1CCN(CC(O)COCC2=CCC3CC2C3(C)C)CC1.O=C(O)C(=O)O` (stereo not shown), the “hERG current change (%, negative = inhibition) at 1uM” value was 2.84%.

Consider `O=C(CNC(=O)c1ccccc1Cl)OCC(=O)N1CCc2ccccc21`, for which the “hERG current change (%, negative = inhibition) at 1uM” value was -8.77%.

In the case of `O=c1sc(/C=N/Nc2ccccc2)c(Cl)n1Cc1ccccc1`, the “hERG current change (%, negative = inhibition) at 1uM” value stood at 11.8%. As to `Cc1c(NC(=O)COC(=O)/C=C/c2ccccc2Br)c(=O)n(-c2ccccc2)n1C`, the “hERG current change (%, negative = inhibition) at 1uM” value is 8.21%.

Consider `O=C(Cc1cccc2ccccc12)NNC(=O)Nc1ccc(Cl)cc1`, for which the “hERG current change (%, negative = inhibition) at 1uM” value is 7.15%. `COc1ccc(C(CC(=O)O)NC(=O)c2cc3cc(Br)ccc3oc2=O)cc1OC` (stereo not shown): the “hERG current change (%, negative = inhibition) at 1uM” value is recorded as 21.7%. Regarding `Cc1cc(C)c2c(NC(=S)NC(=O)c3ccccc3)n[nH]c2n1`, the “hERG current change (%, negative = inhibition) at 1uM” value turned out to be 13.3%. Consider `CCCCOc1ccc(-c2ncc(C(=O)O)c(C)n2)cc1`, for which the “hERG current change (%, negative = inhibition) at 1uM” value turned out to be 13.4%.

With `CS(=O)(=O)N1c2ccccc2[C@]2([C@@]34C[C@H]5C(=O)N[C@@H](Cc6ccccc6)C(=O)N5[C@@H]3N(S(C)(=O)=O)c3ccccc34)C[C@H]3C(=O)N[C@@H](Cc4ccccc4)C(=O)N3[C@H]12`, the “hERG current change (%, negative = inhibition) at 1uM” value amounted to 14.6%. Turning to `COc1cc(NC(=O)CSc2nnc3c(C)cc4cc(C)cc(C)c4n23)c(C(=O)O)cc1OC`, the “hERG current change (%, negative = inhibition) at 1uM” value amounted to 12.8%. The value for `CCN(C(=O)CN1CCN(c2ccc(O)cc2)CC1)c1c(N)n(Cc2ccccc2)c(=O)[nH]c1=O` was -3.76%; that for `CCOC(=O)C1CCN(C(c2cccc(OC)c2)c2sc3nc(C)nn3c2O)CC1` (stereo not shown) was -3.58%. With `O=C(CNC(=O)c1ccccc1)NCC(=O)OCc1ccccc1Cl` the figure was 20.3%. For the compound `N#Cc1ccc(-c2ccc(OCC(O)Cn3nnc4ccccc43)cc2)cc1` (stereo not shown), the “hERG current change (%, negative = inhibition) at 1uM” value is 11.4%. In the case of `Cc1cc(C)n(-c2ncccc2[N+](=O)[O-])n1`, the “hERG current change (%, negative = inhibition) at 1uM” value is recorded as 14.4%. As to `O=S(=O)(NCCC1=CCCCC1)c1cccc(Br)c1`, the “hERG current change (%, negative = inhibition) at 1uM” value is listed as 5.79%. With `CC1=C(C(=O)OC(C)C)C(c2cccc(F)c2)N2C(=O)C(C)SC2=N1` (stereo not shown), the “hERG current change (%, negative = inhibition) at 1uM” value is 6.43%.

Take `O=C(O)c1ccc(N=Cc2c(O)[nH]c(=O)[nH]c2=O)cc1`: the “hERG current change (%, negative = inhibition) at 1uM” value is on record as 12.3%. For `Nc1nonc1-n1nnc(C(=O)N/N=C/c2ccoc2)c1-c1ccccc1`, the “hERG current change (%, negative = inhibition) at 1uM” value stood at 7.6%.

For `CN(c1ccccc1C(=O)N1CCN(Cc2ccc3c(c2)OCO3)CC1)S(C)(=O)=O`, the “hERG current change (%, negative = inhibition) at 1uM” value is given as 9.07%. On to `COc1ccc(N2C(=O)CCC(C(=O)NCc3ccccn3)C2c2ccc(F)cc2)cc1` (stereo not shown), for which the “hERG current change (%, negative = inhibition) at 1uM” value was found to be 20.5%. In the case of `Cc1ccc(OCC(=O)NCCCNC(=O)c2cccnc2)cc1`, the “hERG current change (%, negative = inhibition) at 1uM” value is 10.8%. For `O=C(Cc1c(F)cccc1Cl)Nc1ccccc1N1CCCCC1`, the “hERG current change (%, negative = inhibition) at 1uM” value is recorded as -12.8%.

As to `Cc1ccc(O)c(-c2cc(-c3ccccc3F)[nH]n2)c1`, the “hERG current change (%, negative = inhibition) at 1uM” value came to 9.67%. For `O=c1[nH]c(NCCO)c(N=Cc2ccccc2)c(=O)[nH]1`, the “hERG current change (%, negative = inhibition) at 1uM” value stood at 17.5%. With `O=C(c1cc(Cl)c(=O)n(Cc2ccccc2)c1)N1CCOCC1` the figure was 0.669%; with `COC(=O)c1c(NC(=S)Nc2ccc(C(=O)N3CCOCC3)cc2)sc2c1CCC2`, 7.77%; with `CC(C)(C)NC(=O)NC(=O)COC(=O)C1c2ccccc2Oc2ccccc21`, 2.9%.

As to `CCOC(=O)NC(=O)/C(C#N)=C(/C)N(C)C`, the “hERG current change (%, negative = inhibition) at 1uM” value stood at 10.2%.

As to `O=C1CS/C(=C/C(=O)c2ccccc2)N1`, the “hERG current change (%, negative = inhibition) at 1uM” value came to 6.1%. On to `CS(=O)(=O)N(Cc1ccc(Cl)cc1)c1ccc(C(=O)Nc2cccnc2)cc1`, for which the “hERG current change (%, negative = inhibition) at 1uM” value amounted to 7.21%. With `CCOC(=O)Cc1csc(NC(=O)c2cc3c(s2)CCCC3)n1` the figure was -18.1%; with `CCOc1ccc(NC(=O)CCC(=O)N/N=C(\C)c2cccs2)cc1`, 10.8%; with `CC(C)N1CCC(N2CCN(CC#Cc3ccccc3)CC2CCO)CC1` (stereo not shown), 11.6%. Consider `Cc1nc(NC(=O)C2CC3CCCC(C2)C3=O)sc1C` (stereo not shown), for which the “hERG current change (%, negative = inhibition) at 1uM” value stood at 7.67%. Regarding `Cc1ccc(S(=O)(=O)N2CCOCC2)cc1C(=O)NC1CCCCCC1`, the “hERG current change (%, negative = inhibition) at 1uM” value was 7.11%. Consider `CN(C)c1ccc(/C=N/n2ncc3ccccc32)cc1`, for which the “hERG current change (%, negative = inhibition) at 1uM” value was found to be 9.74%. Turning to `Cn1c(=O)c(=O)n(C)c2cc(N3CCCCC3)c(NS(=O)(=O)c3ccc(Br)cc3)cc21`, the “hERG current change (%, negative = inhibition) at 1uM” value was -10.2%.

For `CCCN(CCC)CCCNC(=O)c1cc2cc3ccc(Cl)cc3nc2o1`, the “hERG current change (%, negative = inhibition) at 1uM” value is listed as -6.08%.

Take `COc1ccc(CCNC(=O)[C@H](C)NC(=O)N2CCn3c2nc2ccccc23)cc1OC`: the “hERG current change (%, negative = inhibition) at 1uM” value amounted to 11.1%. Turning to `O=C(CN1C(=O)CC(c2ccccc2)S(=O)(=O)c2ccccc21)N1CCCCC1` (stereo not shown), the “hERG current change (%, negative = inhibition) at 1uM” value worked out at 6.14%. For the compound `CN(C)c1ccc(/C=C2\SC(N3CCCCC3)=NC2=O)cc1`, the “hERG current change (%, negative = inhibition) at 1uM” value was 4.58%. Regarding `Br.N=C(N)SCCc1cccc(CCSC(=N)N)c1`, the “hERG current change (%, negative = inhibition) at 1uM” value turned out to be 11.2%. The value for `N#CC1=C(N)OC(c2ccccc2)=C(C#N)C1c1ccc2c(c1)OCO2` (stereo not shown) was 15.2%; that for `CCN(Cc1ccccc1)C(=O)Cn1cnc2c1c(=O)n(C)c(=O)n2C` was -12%.
